In the supplement of paper PMC4723716:
± gives the uncertainty stated by the source. The full ranking holds about 9,900 compounds; the median of “viability index relative to DMSO control” is about 1, and the lowest 2% start at about 0.85. This is one part of the list.

The compounds below were run on Plasmodium falciparum NF54 stage V gametocytes (assay: viability index relative to DMSO control (fraction); higher = less gametocyte killing). Details: 2.5 µM, library set: Broad Institute DOS, incubation time: 72 h.
Summary of the method: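 P. falciparum NF54 stage V gametocytes (serum-free medium, 0.75% gametocytemia, 1.25% hematocrit) were exposed to compound at 2.5 µM for 72 hr at 37°C under low oxygen, then stained with MitoTracker Red CMXRos and saponin for one to two hours. Red particles of 20–70 µm2 in one field per well were counted, and the viability index is that count scaled to the plate mean of solvent-only wells.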

In order of falling viability index:
1. CCS(=O)(=O)N1CC(=O)N2[C@@H](CO)[C@@H](c3ccc(C#CC4CCCCC4)cc3)[C@@H]2C1  1.16 ± 0.038
2. O=C(C[C@@H]1C[C@@H]2c3cc(NS(=O)(=O)c4ccc(F)cc4)ccc3O[C@@H]2[C@@H](CO)O1)NCc1cccnc1  1.147 ± 0.01
3. N#Cc1cccc(-c2ccc3c(c2)[C@H]2[C@H](CCN2Cc2ccc4c(c2)OCO4)[C@@H](CO)N3)c1  1.14 ± 0.03
4. CO[C@@H]1CN(C)C(=O)c2cc(NC(=O)c3ccc4c(c3)OCO4)ccc2OC[C@H](C)N(CCC(F)(F)F)C[C@@H]1C  1.13 ± 0.058
5. N#C[C@@H]1[C@@H](c2ccccc2)[C@@H](CO)N1S(=O)(=O)c1cccc(F)c1  1.12 ± 0.05
6. C[C@H](CO)N1C[C@H](C)[C@H](CN(C)C(=O)c2ccncc2)OCCCC[C@H](C)Oc2ccc(NS(=O)(=O)c3cccs3)cc2C1=O  1.11 ± 0.088
7. COc1ccccc1NC(=O)N1[C@@H](C#N)[C@H](c2ccccc2)[C@@H]1CO  1.11 ± 0.056
8. COC(=O)C[C@H]1CC[C@H]2[C@@H](COc3ccc(NS(=O)(=O)c4ccc(C)cc4)cc3C(=O)N2C)O1  1.114 ± 0.0014
9. COc1ccccc1CN1[C@H](CO)[C@@H](c2ccccc2)C12CN(C(=O)c1cnccn1)C2  1.09 ± 0.013
10. Cc1noc(C)c1NC(=O)Nc1ccc2c(c1)C(=O)N(C)[C@H]1CC[C@H](CC(=O)Nc3ccc4c(c3)CCCC4)O[C@@H]1CO2  1.086 ± 0.0014
11. COc1ccc2c3c([C@@H](CO)N(C[C@]33CCN(Cc4nccs4)CC3)S(C)(=O)=O)n(C)c2c1  1.09 ± 0.015
12. Cc1ccc(S(=O)(=O)N(C)C[C@@H]2OCCCC[C@H](C)Oc3ccc(NC(=O)c4ccncc4)cc3C(=O)N([C@H](C)CO)C[C@@H]2C)cc1  1.09 ± 0.029
13. CN1c2ccc(-c3cccc(C#N)c3)cc2[C@@H]2[C@@H](CCN2C(=O)Cc2ccccn2)[C@H]1CO  1.08 ± 0.061
14. N#C[C@@H]1[C@@H](c2ccccc2-c2cccc(F)c2)[C@H](CO)N1C(=O)NC1CCCCC1  1.08 ± 0.12
15. COc1ccc2c3c([C@@H](CO)N(C[C@]33CCN(CC3)C(=O)Nc3ccc(F)cc3F)C(=O)Nc3ccc(F)cc3)n(C)c2c1  1.08 ± 0.07
16. C[C@H]1CN([C@@H](C)CO)C(=O)Cc2cc(N(C)C)ccc2O[C@@H]1CN(C)Cc1ccc(-c2ccccc2)cc1  1.08 ± 0.05
17. C[C@H](CO)N1C[C@H](C)[C@@H](CN(C)Cc2ccc3c(c2)OCO3)Oc2ccc(NS(=O)(=O)c3cn(C)cn3)cc2CC1=O  1.07 ± 0.046
18. CO[C@@H]1CN(C)C(=O)c2ccc(NC(=O)c3ccccc3F)cc2OC[C@@H](C)N(C)C[C@@H]1C  1.068 ± 0.009
19. CO[C@H](C(=O)N(C)C[C@H]1OCc2ccccc2-c2ccccc2C(=O)N([C@H](C)CO)C[C@@H]1C)c1ccccc1  1.07 ± 0.06
20. Cc1noc(C)c1NC(=O)N(C)C[C@@H]1OCCCC[C@@H](C)Oc2ccc(NC(=O)CCCCCC(=O)Nc3ccccc3N)cc2C(=O)N([C@H](C)CO)C[C@@H]1C  1.07 ± 0.1
21. CS(=O)(=O)N1Cc2cc(C(=O)O)nc(-c3cccc(-c4ccccc4F)c3)c2[C@@H]1CCO  1.06 ± 0.013
22. C[C@H]1COCc2cnnn2CC[C@@H](Cc2ccccc2)C(=O)N1  1.06 ± 0.027
23. O=C(c1cccc(F)c1)N1CCCCN2[C@H](CO)[C@@H](c3ccc(C#CC4(O)CCCC4)cc3)[C@H]2C1  1.06 ± 0.025
24. CO[C@@H]1CC[C@@H]2CCN(C)C(=O)CC3(CCCCC3)CN(C)C(=O)c3cc(C#N)ccc3OC[C@H]1O2  1.0482 ± 0.00013
25. CC(=O)N1CC2(C1)[C@@H](c1ccc(-c3cccc(C#N)c3)cc1)[C@@H](CO)N2CCC(F)(F)F  1.05 ± 0.024
26. CO[C@@H]1CN(C)C(=O)c2cc(NC(=O)Nc3ccccc3F)ccc2OC[C@@H](C)N(C(=O)c2cnccn2)C[C@H]1C  1.05 ± 0.043
27. CO[C@H]1CN(C)C(=O)c2ccc(NC(=O)Nc3cc(F)ccc3F)cc2OC[C@H](C)N(C(=O)c2ccccn2)C[C@H]1C  1.05 ± 0.059
28. COc1ccc(NC(=O)N(C)C[C@@H]2OCCCC[C@H](C)Oc3ccc(NC(=O)c4ccncc4)cc3C(=O)N([C@@H](C)CO)C[C@@H]2C)cc1  1.05 ± 0.013
29. C[C@@H]1CN([C@@H](C)CO)C(=O)c2ccccc2-c2ccccc2CO[C@H]1CN(C)C(=O)[C@@H]1CCCN1C  1.05 ± 0.013
30. CC(C)(O)C#Cc1ccc([C@@H]2[C@H](CO)N3CCCCN(S(C)(=O)=O)C[C@@H]23)cc1  1.04 ± 0.0088
31. O=C(C[C@@H]1CC[C@H](NS(=O)(=O)c2ccc(F)cc2)[C@H](CO)O1)N1CCN(c2ccccc2)CC1  1.04 ± 0.043
32. O=C(C1CCCCC1)N1CC(=O)N2[C@@H](CO)[C@@H](c3ccc(-c4ccccc4F)cc3)[C@@H]2C1  1.04 ± 0.034
33. COc1ccccc1NC(=O)N1C[C@@H](O)COC[C@H]2O[C@H](CC(=O)NCCc3ccncc3)CC[C@@H]21  1.03 ± 0.067
34. O=C(C[C@@H]1CC[C@@H]2NC[C@@H](O)COC[C@H]2O1)N1CCc2ccccc2C1  1.03 ± 0.16
35. N#C[C@@H]1[C@H](c2ccccc2C2=CCCCC2)[C@@H](CO)N1C(=O)c1ccccn1  1.03 ± 0.066
36. O=C(c1ccc(F)cc1)N1CC(=O)N2[C@@H](CO)[C@H](c3ccc(C#CCC4CCCC4)cc3)[C@@H]2C1  1.03 ± 0.058
37. O=C(C[C@H]1CC[C@@H]2[C@H](COC[C@H](O)CN2C(=O)c2ccccc2F)O1)NCc1ccc(F)cc1  1.02 ± 0.055
38. CCCC(=O)N1C[C@]2(CCN(CC2)S(C)(=O)=O)c2c([nH]c3cc(OC)ccc23)[C@@H]1CO  1.02 ± 0.06
39. O=C(Nc1ccccc1)N1CC(=O)N2[C@H](C1)[C@@H](c1ccc(C#CC3CCCCC3)cc1)[C@@H]2CO  1.01 ± 0.02
40. C[C@H](CO)N1C[C@H](C)[C@H](CN(C)C(=O)Nc2cccc(C(F)(F)F)c2)OCc2cn(nn2)CCCC1=O  1.01 ± 0.036
41. CO[C@@H]1CN(C)C(=O)c2cc(NC(=O)c3ccc4c(c3)OCO4)ccc2OC[C@@H](C)N(CCC(F)(F)F)C[C@@H]1C  1.008 ± 0.0018
42. Cc1ccc(S(=O)(=O)N2C[C@@H](O)COC[C@@H]3O[C@H](CC(=O)NCc4ccc5c(c4)OCO5)CC[C@H]32)cc1  1.01 ± 0.024
43. CO[C@H](CN(C)S(=O)(=O)c1ccc(F)cc1)[C@@H](C)CN(Cc1ccccc1Cl)[C@H](C)CO  1.001 ± 0.007
44. COc1cccc(S(=O)(=O)N2CCCCN3[C@H](CO)[C@H](c4ccc(C#CCC(C)C)cc4)[C@@H]3C2)c1  1 ± 0.078
45. C[C@@H]1CN([C@@H](C)CO)C(=O)c2ccccc2-c2ccccc2CO[C@@H]1CN(C)Cc1cccc2c1OCCCO2  1 ± 0.11
46. C[C@@H]1CCCCO[C@H](CN(C)Cc2ccc3c(c2)OCO3)[C@@H](C)CN([C@H](C)CO)C(=O)c2cc(NS(=O)(=O)c3cn(C)cn3)ccc2O1  0.999 ± 0.018
47. CCCC(=O)N1C[C@@]2(C1)CN([C@@H](CO)c1c2c2ccc(OC)cc2n1C)C(=O)Nc1cccc(F)c1  0.997 ± 0.13
48. O=C1CN(S(=O)(=O)c2cccc(F)c2)C[C@@H]2[C@@H](c3ccc(C4=CCCC4)cc3)[C@H](CO)N12  0.997 ± 0.064
49. C[C@H]1CN([C@@H](C)CO)S(=O)(=O)c2ccc(-c3ccc(F)cc3)cc2O[C@@H]1CN(C)Cc1ccccc1C(=O)O  0.994 ± 0.053
50. O=C1CN(S(=O)(=O)c2cccc(F)c2)C[C@H]2[C@H](c3ccc(C4=CCCC4)cc3)[C@@H](CO)N12  0.99159 ± 0.00054
51. COCC(=O)N1CC[C@H]2[C@H](CO)Nc3ccc(C#Cc4ccc(F)cc4)cc3[C@H]21  0.99 ± 0.074
52. O=C(C[C@H]1C=C[C@H](NC(=O)c2ccc3c(c2)OCO3)[C@@H](CO)O1)NC1Cc2ccccc2C1  0.983 ± 0.067
53. O=C(O)C[C@H]1C=C[C@@H](NC(=O)Nc2cc(F)ccc2F)[C@H](CO)O1  0.981 ± 0.069
54. O=C(Cc1ccccc1)N1C[C@H]2[C@@H](c3ccccc31)[C@@H](CO)N2S(=O)(=O)c1ccccc1  0.98 ± 0.16
55. C[C@H](CO)N1C[C@H](C)[C@H](CN(C)Cc2ccccc2)OCc2cn(nn2)CCCC1=O  0.976 ± 0.066
56. CC(=O)N1[C@@H](CO)[C@@H](c2ccccc2)[C@@H]1CN(CC(C)C)C(=O)c1ccccn1  0.976 ± 0.064
57. CCN(C[C@@H]1[C@@H](c2ccccc2)[C@H](CO)N1S(C)(=O)=O)C(=O)C1CCCC1  0.972 ± 0.036
58. COc1ccc2c3c([C@@H](CO)N(C[C@]33CCN(Cc4cccnc4)CC3)S(=O)(=O)c3ccc(C)cc3)n(C)c2c1  0.971 ± 0.04
59. COc1ccc2c3c([C@@H](CO)N(C[C@]33CN(C3)C(=O)c3ccccc3F)C(=O)Nc3ccccc3F)n(C)c2c1  0.97 ± 0.053
60. CNC[C@@H]1Oc2ccc(NS(=O)(=O)c3ccc(OC)cc3)cc2C(=O)N([C@H](C)CO)C[C@H]1C  0.967 ± 0.061
61. CCCC(=O)Nc1ccc2c(c1)OC[C@@H](C)N(CC1CCOCC1)C[C@@H](C)[C@H](OC)CN(C)C2=O  0.964 ± 0.1
62. COc1ccccc1-c1ccc([C@H]2[C@@H]3CN(S(=O)(=O)c4ccc(C)cc4)C[C@H]2N3)cc1  0.958 ± 0.015
63. C[C@@H]1CCCCO[C@H](CN(C)C(=O)Nc2cccc3ccccc23)[C@H](C)CN([C@@H](C)CO)C(=O)c2cc(NC(=O)CCC(F)(F)F)ccc2O1  0.955 ± 0.073
64. COc1ccc2c3c([C@H](CO)N(C[C@]33CCN(CC3)S(=O)(=O)c3cccc(C)c3)C(=O)Nc3ccc(F)cc3)n(C)c2c1  0.955 ± 0.1
65. C[C@H](CO)N1C[C@H](C)[C@H](CN(C)Cc2ccc3c(c2)OCO3)Oc2c(NC(=O)c3ccncc3)cccc2C1=O  0.948 ± 0.033
66. Cc1ccccc1-c1ccc2c(c1)O[C@H](CN(C)C(=O)Nc1ccc(C(F)(F)F)cc1)[C@@H](C)CN([C@H](C)CO)S2(=O)=O  0.947 ± 0.068
67. C[C@@H]1CN([C@@H](C)CO)C(=O)c2c(c3ccccc3n2C)-c2ccccc2CO[C@@H]1CN(C)C(=O)[C@H](Cc1ccccc1)N(C)C  0.942 ± 0.2
68. C[C@H]1CN([C@@H](C)CO)C(=O)Cc2cc(NC(=O)Nc3ccc(F)cc3)ccc2O[C@H]1CN(C)S(C)(=O)=O  0.931 ± 0.081
